From paper PMC9911399, “Two distinct binding modes provide the RNA-binding protein RbFox with extraordinary sequence specificity”
Numbering of substitutions follows the chain as printed; changes in the protein carry UniProt numbers. The list shows a part of the results.

T1: RBFOX1 RRM (Homo sapiens, UniProt Q9NWB1 109-208)
T1 sequence: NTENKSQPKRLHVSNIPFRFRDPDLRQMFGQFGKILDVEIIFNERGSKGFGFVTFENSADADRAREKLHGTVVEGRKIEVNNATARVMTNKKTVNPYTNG

B1: GCCGCUG (DNA:RNA)
RNA: GGGAGACCGGAAUUCAGAUUGUCCGCCGCUGUUAAAUCCCGUCGUAGCCACCA
DNA 1: CAATCTGAATTCCGGTCTCCC
DNA 2: TGGTGGCTACGACGGGATT
B2: GGGCCCU (DNA:RNA)
RNA: B1 RNA with C26G, C27G, G28C, U30C, G31U
DNA 1: CAATCTGAATTCCGGTCTCCC
DNA 2: TGGTGGCTACGACGGGATT
B3: AGGGGGA (DNA:RNA)
RNA: B1 RNA with G25A, C26G, C27G, C29G, U30G, G31A
DNA 1: CAATCTGAATTCCGGTCTCCC
DNA 2: TGGTGGCTACGACGGGATT
B4: CGUUCUC (DNA:RNA)
RNA: B1 RNA with G25C, C26G, C27U, G28U, G31C
DNA 1: CAATCTGAATTCCGGTCTCCC
DNA 2: TGGTGGCTACGACGGGATT
B5: UGCGCAU (DNA:RNA)
RNA: B1 RNA with G25U, C26G, U30A, G31U
DNA 1: CAATCTGAATTCCGGTCTCCC
DNA 2: TGGTGGCTACGACGGGATT
B6: UCUGGGA (DNA:RNA)
RNA: B1 RNA with G25U, C27U, C29G, U30G, G31A
DNA 1: CAATCTGAATTCCGGTCTCCC
DNA 2: TGGTGGCTACGACGGGATT
B7: UUCUGCG (DNA:RNA)
RNA: B1 RNA with G25U, C26U, G28U, C29G, U30C
DNA 1: CAATCTGAATTCCGGTCTCCC
DNA 2: TGGTGGCTACGACGGGATT
B8: UUGGCGU (DNA:RNA)
RNA: B1 RNA with G25U, C26U, C27G, U30G, G31U
DNA 1: CAATCTGAATTCCGGTCTCCC
DNA 2: TGGTGGCTACGACGGGATT
B9: UAAUAAC (DNA:RNA)
RNA: GGGAGACCGGAAUUCAGAUUGUCCUAAUAACUUAAAUCCCGUCGUAGCCACCA
DNA 1: CAATCTGAATTCCGGTCTCCC
DNA 2: TGGTGGCTACGACGGGATT
B10: UGCGCUG (DNA:RNA)
RNA: B1 RNA with G25U, C26G
DNA 1: CAATCTGAATTCCGGTCTCCC
DNA 2: TGGTGGCTACGACGGGATT
B11: CAUCGCU (DNA:RNA)
RNA: B9 RNA with U25C, A27U, U28C, A29G, A30C, C31U
DNA 1: CAATCTGAATTCCGGTCTCCC
DNA 2: TGGTGGCTACGACGGGATT
B12: GAUGCCA (DNA:RNA)
RNA: B1 RNA with C26A, C27U, U30C, G31A
DNA 1: CAATCTGAATTCCGGTCTCCC
DNA 2: TGGTGGCTACGACGGGATT
B13: CGCAAUC (DNA:RNA)
RNA: B1 RNA with G25C, C26G, G28A, C29A, G31C
DNA 1: CAATCTGAATTCCGGTCTCCC
DNA 2: TGGTGGCTACGACGGGATT
B14: AAUGUAG (DNA:RNA)
RNA: B1 RNA with G25A, C26A, C27U, C29U, U30A
DNA 1: CAATCTGAATTCCGGTCTCCC
DNA 2: TGGTGGCTACGACGGGATT
B15: GUUGGGA (DNA:RNA)
RNA: B1 RNA with C26U, C27U, C29G, U30G, G31A
DNA 1: CAATCTGAATTCCGGTCTCCC
DNA 2: TGGTGGCTACGACGGGATT
B16: CCAAUAG (DNA:RNA)
RNA: B1 RNA with G25C, C27A, G28A, C29U, U30A
DNA 1: CAATCTGAATTCCGGTCTCCC
DNA 2: TGGTGGCTACGACGGGATT
B17: GAAAAUA (DNA:RNA)
RNA: B9 RNA with U25G, U28A, A30U, C31A
DNA 1: CAATCTGAATTCCGGTCTCCC
DNA 2: TGGTGGCTACGACGGGATT
B18: CCAGAUG (DNA:RNA)
RNA: B1 RNA with G25C, C27A, C29A
DNA 1: CAATCTGAATTCCGGTCTCCC
DNA 2: TGGTGGCTACGACGGGATT
B19: GGUGCAC (DNA:RNA)
RNA: B1 RNA with C26G, C27U, U30A, G31C
DNA 1: CAATCTGAATTCCGGTCTCCC
DNA 2: TGGTGGCTACGACGGGATT
B20: AAUUCCC (DNA:RNA)
RNA: B9 RNA with U25A, A27U, A29C, A30C
DNA 1: CAATCTGAATTCCGGTCTCCC
DNA 2: TGGTGGCTACGACGGGATT
B21: UACGGUG (DNA:RNA)
RNA: B1 RNA with G25U, C26A, C29G
DNA 1: CAATCTGAATTCCGGTCTCCC
DNA 2: TGGTGGCTACGACGGGATT
B22: GAGAAAG (DNA:RNA)
RNA: B9 RNA with U25G, A27G, U28A, C31G
DNA 1: CAATCTGAATTCCGGTCTCCC
DNA 2: TGGTGGCTACGACGGGATT
B23: UCCGCUU (DNA:RNA)
RNA: B1 RNA with G25U, G31U
DNA 1: CAATCTGAATTCCGGTCTCCC
DNA 2: TGGTGGCTACGACGGGATT
B24: UUAAUGC (DNA:RNA)
RNA: B9 RNA with A26U, U28A, A29U, A30G
DNA 1: CAATCTGAATTCCGGTCTCCC
DNA 2: TGGTGGCTACGACGGGATT
B25: AGGAACU (DNA:RNA)
RNA: B9 RNA with U25A, A26G, A27G, U28A, A30C, C31U
DNA 1: CAATCTGAATTCCGGTCTCCC
DNA 2: TGGTGGCTACGACGGGATT
B26: UGCCAUC (DNA:RNA)
RNA: B9 RNA with A26G, A27C, U28C, A30U
DNA 1: CAATCTGAATTCCGGTCTCCC
DNA 2: TGGTGGCTACGACGGGATT
B27: AGGGGCG (DNA:RNA)
RNA: B1 RNA with G25A, C26G, C27G, C29G, U30C
DNA 1: CAATCTGAATTCCGGTCTCCC
DNA 2: TGGTGGCTACGACGGGATT
B28: GGGUGUU (DNA:RNA)
RNA: B1 RNA with C26G, C27G, G28U, C29G, G31U
DNA 1: CAATCTGAATTCCGGTCTCCC
DNA 2: TGGTGGCTACGACGGGATT
B29: GAUCCCA (DNA:RNA)
RNA: B1 RNA with C26A, C27U, G28C, U30C, G31A
DNA 1: CAATCTGAATTCCGGTCTCCC
DNA 2: TGGTGGCTACGACGGGATT
B30: GUACCGU (DNA:RNA)
RNA: B1 RNA with C26U, C27A, G28C, U30G, G31U
DNA 1: CAATCTGAATTCCGGTCTCCC
DNA 2: TGGTGGCTACGACGGGATT
B31: GAAUAGA (DNA:RNA)
RNA: B9 RNA with U25G, A30G, C31A
DNA 1: CAATCTGAATTCCGGTCTCCC
DNA 2: TGGTGGCTACGACGGGATT

Target: T1, RBFOX1 RRM
Assay: EMSA; HiTS-Eq, 1 nM pool, 10 min; buffer printed only for the single-RNA assays: 10 mM Tris pH 7.5, 150 mM NaCl, 3.4 mM EDTA, 0.001% NP-40, 30 C
Settings: tags: His6 N-terminal (pET28a); label: 5' 32P
In short: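 A pool of RNA with 7 randomized nucleotides, 5′-radiolabelled and with DNA-annealed flanks, was equilibrated at 1 nM for 10 min in 50 µL with purified RbFox RRM, wild type or mutant, across increasing protein concentrations. Free RNA was separated by 8% native PAGE, excised, reverse-transcribed, barcoded by PCR and sequenced. Relative association constants were obtained from read-count changes of each RNA species versus the control reaction and normalised to the cognate motif.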

Row | Binder | binding signal
1 | B1 | 0.0218 KA relative to UGCAUGU
2 | B2 | 0.00615 KA relative to UGCAUGU
3 | B3 | 0.0149 KA relative to UGCAUGU
4 | B4 | 0.0102 KA relative to UGCAUGU
5 | B5 | 0.0197 KA relative to UGCAUGU
6 | B6 | 0.00462 KA relative to UGCAUGU
7 | B7 | 0.0227 KA relative to UGCAUGU
8 | B8 | 0.026 KA relative to UGCAUGU
9 | B9 | 0.004 KA relative to UGCAUGU
10 | B10 | 0.031 KA relative to UGCAUGU
11 | B11 | 0.00424 KA relative to UGCAUGU
12 | B12 | 0.00795 KA relative to UGCAUGU
13 | B13 | 0.0042 KA relative to UGCAUGU
14 | B14 | 0.00936 KA relative to UGCAUGU
15 | B15 | 0.0102 KA relative to UGCAUGU
16 | B16 | 0.00034 KA relative to UGCAUGU

Row | Binder | binding signal
17 | B17 | 0.00151 KA relative to UGCAUGU
18 | B18 | 0.00679 KA relative to UGCAUGU
19 | B19 | 0.0124 KA relative to UGCAUGU
20 | B20 | 0.00155 KA relative to UGCAUGU
21 | B21 | 0.0204 KA relative to UGCAUGU
22 | B22 | 0.0113 KA relative to UGCAUGU
23 | B23 | 0.0108 KA relative to UGCAUGU
24 | B24 | 0.0138 KA relative to UGCAUGU
25 | B25 | 0.0115 KA relative to UGCAUGU
26 | B26 | 0.016 KA relative to UGCAUGU
27 | B27 | 0.0278 KA relative to UGCAUGU
28 | B28 | 0.0233 KA relative to UGCAUGU
29 | B29 | 0.00662 KA relative to UGCAUGU
30 | B30 | 0.0109 KA relative to UGCAUGU
31 | B31 | 0.00829 KA relative to UGCAUGU
